According to PubChem BioAssay AID485344 (National Center for Advancing Translational Sciences (NCATS), 2010):
Screen size: about 340,000 compounds; about 6,900 (2%) were called active. Cut-off read from the data, not from the text of the source: active = inhibition above about 30%; inactive = below that, where a call was filed. The list shows a part of the results, in another mix than the full data. Where no call is shown, the source filed none.

biological target: D(2) dopamine receptor (Homo sapiens) (UniProt P14416); test: HTS Assay for Allosteric Antagonists of the Human D2 Dopamine Receptor: Primary Screen for Antagonists; details: HEK293 TREx D2 cells, calcium flux, dopamine EC80; at 10 µM; stronger effect = higher value; note: 0% is about no effect
Method in brief: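 Read-out: kinetic calcium fluorescence (1 cycle/s) in inducible HEK293 T-REx D2 cells after an EC80 dopamine addition that followed 180 s compound preincubation. Loss of the dopamine response indicates antagonism.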

UniProt P14416, sequence (P14416 whole entry, looked up): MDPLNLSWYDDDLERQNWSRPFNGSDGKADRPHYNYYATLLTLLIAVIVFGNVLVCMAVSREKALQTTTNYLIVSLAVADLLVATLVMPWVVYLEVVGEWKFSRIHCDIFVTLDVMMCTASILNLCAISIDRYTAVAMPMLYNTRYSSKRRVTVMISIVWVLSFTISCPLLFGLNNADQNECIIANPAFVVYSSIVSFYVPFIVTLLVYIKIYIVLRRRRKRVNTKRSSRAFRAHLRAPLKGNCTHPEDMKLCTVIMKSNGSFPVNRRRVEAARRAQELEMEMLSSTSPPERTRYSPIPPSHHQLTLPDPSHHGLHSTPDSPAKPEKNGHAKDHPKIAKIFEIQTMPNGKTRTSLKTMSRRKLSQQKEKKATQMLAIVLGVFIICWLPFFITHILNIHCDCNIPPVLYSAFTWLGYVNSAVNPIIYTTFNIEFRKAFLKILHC

First: CCOC(=O)c1ccc(NC(=O)C2Cc3ccccc3C(=O)O2)cc1 (configuration not stated)
Second: CCOC(=O)c1ccc2c(c1)N(Cc1cccc(C(F)(F)F)c1)C(=O)c1ccccc1S2(=O)=O
The inhibition of the first is lower: -4.33% for the first, -0.339% for the second.

Compared with Cc1cccc(-c2noc(CNC(=O)c3ccco3)n2)c1, Cc1cccc(-c2nnc(SCC(=O)N3CCCc4ccccc43)o2)c1 is higher in inhibition: -8.45% for the first, 10.8% for the second.

Going from Brc1ccc(CNCCCSc2nnnn2-c2ccccc2)cc1 to Cn1nnnc1SCCNCc1ccccc1OCc1ccc(Cl)cc1Cl, the inhibition rises from -15% to 8.59%.

First: CC(=O)c1cc2c(cc1N/C(=N/S(=O)(=O)c1ccccc1)c1ccc(Cl)cc1)OCO2
Second: Nc1c(-c2nc(-c3ccccc3)cs2)c2ccccn2c1C(=O)c1ccc2c(c1)OCO2
The inhibition of the first is higher: -5.92% for the first, -7.43% for the second.

First: Cc1cc(C)cc(C(=O)Nc2c(C(=O)Nc3ccccc3F)oc3ccccc23)c1
Second: Cc1ccccc1NC(=O)CSc1nc2ccc(NC(=O)c3ccccc3)cc2s1
The inhibition of the first is lower: -1.78% for the first, 17.6% for the second.

First: COc1ccccc1OCCn1c(C(C)Oc2ccccc2)nc2ccccc21 (configuration not stated)
Second: COc1ccc(C(=O)Oc2c(Sc3ccccc3)c(C)nn2-c2ccccc2)cc1OC
The inhibition of the first is higher: 7.69% for the first, -22% for the second.

Compared with CC(C)c1ccc(NC(c2nnc(-c3ccccc3)o2)c2ccc(F)cc2Cl)cc1 (configuration not stated), CC(=O)c1cc(-c2ccccc2)n(CCC(=O)Nc2ccc(C(C)C)cc2)c1C is lower in inhibition: -2.61% for the first, -15.2% for the second.

Compared with CCN(CC)CCNC(=O)c1ccc(-c2nc(CS(=O)(=O)c3ccc(C)cc3)c(C)o2)cc1, Cc1oc(-c2ccc(C(=O)NCc3ccc(F)cc3)cc2)nc1CS(=O)c1ccccc1 (configuration not stated) is higher in inhibition: -2.24% for the first, 3.1% for the second.

Going from COc1ccccc1-c1nnc(SCC(N)=O)o1 to CCn1c(SCC(=O)N2CCC(C)CC2)nnc1-c1ccccc1O, the inhibition rises from -2.88% to 17.8%.

First: CCOc1ccc(/C=C/c2nc(C#N)c(NC3CCCCC3)o2)cc1
Second: COc1ccc(-n2c(C)nc3cc(C(=O)NC4CCCC4)ccc32)cc1
The inhibition of the first is lower: -7.7% for the first, 9.58% for the second.

Going from COc1ccc(NC(=O)Cn2cnc3ccc(S(=O)(=O)N4CCC(C)CC4)cc3c2=O)cc1Cl to Cc1ccc(CNC(=O)c2oc3ccc(S(=O)(=O)N4CCC(C)CC4)cc3c2C)cc1, the inhibition falls from -3.69% to -6.12%.

Compared with Cc1ccc(-n2ccnc(NCCc3ccc(S(N)(=O)=O)cc3)c2=O)c(C)c1, COc1ccc(OC)c(CCNc2nccn(-c3ccc(C)c(C)c3)c2=O)c1 is higher in inhibition: 1.19% for the first, 2% for the second.

First: CC(C)(C)OC(=O)N1CCC(c2c(C(=O)NCCN3CCCC3)cnn2-c2ccc(Cl)cc2)CC1
Second: Cc1ccc(-n2ncc(C(=O)N3CCN(Cc4ccccc4)CC3)c2C2CCN(C(=O)OC(C)(C)C)CC2)cc1
The inhibition of the first is lower: 5.4% for the first, 13.1% for the second.

First: COc1ccc(-c2cc(C(F)(F)F)n3nc(C(=O)O)c(Cl)c3n2)cc1OC
Second: COc1ccc(CCNC(=O)C2CCN(c3nc4ccccc4nc3C(F)(F)F)CC2)cc1OC
The inhibition of the first is higher: -1.69% for the first, -2.48% for the second.

First: CCOc1ccc(NC(=O)Cn2cc(C(=O)c3ccc(F)cc3)c(=O)c3cc4c(cc32)OCCO4)cc1
Second: CCOc1ccc(NC(=O)Cn2cc(C(=O)c3ccc(C)cc3)c(=O)c3cc4c(cc32)OCCO4)cc1
The inhibition of the first is higher: 17.9% for the first, 4.43% for the second.

Compared with COc1ccccc1CNC(=O)c1ccc2c(c1)N(Cc1cc(C)ccc1C)C(=O)c1ccccc1S2, Cc1ccccc1CN1C(=O)C(O)(CC(=O)c2ccccc2)c2cc(Cl)ccc21 (configuration not stated) is lower in inhibition: 0.229% for the first, -0.81% for the second.

Going from CCCCNC(=O)c1cc2c(=O)n3cccc(C)c3nc2s1 to CCCn1ccc2c(OCC(=O)Nc3ccccc3OCC)cccc2c1=O, the inhibition falls from 16.7% to -8.77%.

Compared with Cc1cccc(OCC(=O)Nc2ccc3nc(Nc4cccc(C(F)(F)F)c4)cc(C)c3c2)c1, Cc1ccccc1-c1nc(CS(=O)(=O)CC(=O)Nc2cccc(C(F)(F)F)c2)c(C)o1 is lower in inhibition: 2.18% for the first, -8.68% for the second.

First: CCCCN1C(=O)CN(C2CCCCCC2)C(=O)C1c1ccc(OC(C)C)c(OC)c1 (configuration not stated)
Second: COc1ccc(NC(=O)C2=C(C)C(=O)OC23CCN(C(C)C)CC3)cc1Cl
The inhibition of the first is higher: 2.4% for the first, -1.39% for the second.

First: CC(=O)OCc1cnc(C)c2oc(=O)c(C(=O)Nc3ccc(C)cc3Cl)cc12
Second: Cc1cccc(CS(=O)(=O)c2ncc(Cl)c(C(=O)Nc3nc4ccc(F)cc4s3)n2)c1
The inhibition of the first is higher: -11.6% for the first, -14.1% for the second.

First: COc1ccc(-c2coc3c2c(C)cc2oc(=O)c(C)c(C)c23)cc1
Second: COc1ccc(-c2nc3ccc(NS(C)(=O)=O)cc3o2)cc1
The inhibition of the first is higher: 1.83% for the first, -4.68% for the second.

Compared with CC1CCC(Nc2ncnc3onc(-c4ccc(Cl)cc4)c23)CC1 (configuration not stated), Cc1cc(C)cc(NC(=O)C2CCN(c3cc(C)nc4c(-c5ccc(Cl)cc5)c(C)nn34)CC2)c1 is lower in inhibition: 1.16% for the first, -0.613% for the second.

Going from O=C(Nc1ccc2nc(SCC(=O)N3CCCc4ccccc43)sc2c1)c1cccc(Cl)c1 to Cc1ccc(CNC(=O)CCC(=O)N2Cc3ccccc3Oc3ncccc32)cc1, the inhibition falls from 14% to -2.55%.

First: Cc1ccc(NC(=O)CN2C(=O)CSc3ccc(S(=O)(=O)N4CCCC4)cc32)c(C)c1
Second: Cc1ccc(N2CCN(S(=O)(=O)c3ccc4oc(=O)c5ncn(C)c5c4c3)CC2)c(C)c1
The inhibition of the first is lower: -8.89% for the first, -7.46% for the second.

Going from CCc1ccccc1Nc1cc(C(=O)NCCc2ccccc2)c2ccccc2n1 to CCN1C(C(=O)c2ccccc2)=C(OC(=O)COc2ccccc2)c2ccccc2S1(=O)=O, the inhibition rises from -5.47% to -2.11%.

First: COc1ccc(N2CCN(Cc3cc(=O)oc4ccc(OC)cc34)CC2)cc1
Second: COc1ccc(Cn2c(=O)[nH]c3cc(C(=O)N4CCN(c5ccccc5)CC4)ccc3c2=O)cc1
The inhibition of the first is lower: 10.6% for the first, 27.7% for the second.

Going from COc1ccccc1NC(=O)C1=C(C)Nc2nc3ccccc3n2C1c1cccc(Br)c1 (configuration not stated) to COc1cc2c(cc1OC)C(COc1ccc(F)cc1)N(C(=O)c1ccccc1F)CC2 (configuration not stated), the inhibition rises from 9.05% to 15.5%.

Going from O=C(Cn1c(=O)n(-c2ccc(F)cc2)c(=O)c2sc3ccccc3c21)NC1CCCCC1 to COc1ccc(-n2c(SCC(=O)Nc3nnc(C)s3)nc3c([nH]c4ccccc43)c2=O)cc1, the inhibition rises from 3.59% to 5.2%.

Going from CCCOc1ccc(Nc2cc(C)nc(C)n2)cc1 to COc1cccc(CNc2ncc(-c3ccc(Br)cc3)n2C)c1, the inhibition rises from -1.25% to 23.9%.

First: Cn1c(SCc2cccc(F)c2)nc2c([nH]c3ccccc32)c1=O
Second: Cc1oc(-c2cccc(Br)c2)nc1Cn1c(=O)cc(-c2ccccc2)c2c(C)nn(C)c21
The inhibition of the first is higher: 16.4% for the first, 13.2% for the second.

Compared with O=C(NCC(c1cccnc1)N1CCOCC1)C(=O)Nc1ccc(F)cc1 (configuration not stated), O=C(NCCCN1CCN(c2ccccc2)CC1)c1nnc(Cc2ccc(F)cc2)o1 is lower in inhibition: 12.9% for the first, -1.27% for the second.

Going from CCc1nc2onc(C)c2c(=O)n1CC(=O)O to COc1ccc(-c2noc(Cn3c(=O)c4ccccc4n(CC(=O)Nc4cccc(C(F)(F)F)c4)c3=O)n2)cc1, the inhibition rises from -1.86% to 12.1%.

Going from O=C(c1cccc(Cl)c1)N(Cc1ccco1)Cc1ccccc1Cl to Clc1ccccc1Cn1cccc1C1=NC(Cc2ccccc2)CO1 (configuration not stated), the inhibition falls from 10.7% to -2.48%.

Going from COc1ccc2c(c1)c1c(c(=O)n(Cc3ccccc3)c(=O)n1CC(=O)Nc1c(C)cccc1C)n2C to CCOC(=O)c1scc(-c2ccc(C)cc2)c1S(=O)(=O)Nc1cccc(CC)c1, the inhibition falls from 7.02% to -13.4%.

Compared with Cc1ccc(S(=O)(=O)NCCc2sc3nc(-c4ccccc4)nn3c2C)cc1C, Cc1ccc(S(=O)(=O)c2nnn3c2nc(NCc2cccs2)c2sccc23)cc1C is lower in inhibition: 8.84% for the first, -14.6% for the second.

Compared with O=S(=O)(Nc1cccc(-c2ccc(N3CCCCCC3)nn2)c1)c1ccccc1, COc1cccc2sc(N3CCN(C(=O)CS(=O)(=O)c4ccc(Cl)cc4)CC3)nc12 is lower in inhibition: 8.83% for the first, -7% for the second.

First: Cc1ccc(C)c(NS(=O)(=O)c2ccc3c(c2)n(C)c(=O)n3C)c1
Second: Cc1cccc(C(=O)Nc2cc3c(cc2N2CCOCC2)n(C)c(=O)n3C)c1
The inhibition of the first is lower: -20.6% for the first, -3.76% for the second.

Compared with O=C(Cc1ccc(F)cc1)NCCc1csc(-c2cccc(F)c2)n1, Cc1onc(-c2ccc(Br)cc2)c1C(=O)Nc1ccc(Br)cc1F is lower in inhibition: -6.51% for the first, -24.7% for the second.

Going from CCOc1ccc(N(CC)S(=O)(=O)N2CCCC(C(=O)NCc3ccc(Cl)cc3)C2)cc1 (configuration not stated) to CCOCCCNC(=O)Nc1cc(C(=O)NCc2ccc(C(C)C)cc2)ccc1N1CCCC1, the inhibition falls from 3.6% to -2.76%.

Going from CC(C)NC(=O)N1CCC(N2CCN(Cc3ccc(F)cc3)C(=O)C2=O)CC1 to COC(=O)C(C)NC(=O)N1CCN(c2nnc(C)c3c(C)n(-c4ccc(Cl)cc4)nc23)CC1 (configuration not stated), the inhibition falls from -1.71% to -3.18%.

Going from CC(C)OCCCN(C)C1CCN(S(=O)(=O)c2csc(C(N)=O)c2)CC1 to CC(C)N(C(=O)c1cc2c(Cl)nc3ccccc3c2s1)C1CCCCC1, the inhibition rises from -10.2% to 6.73%.

Going from CC(=O)c1ccc(C(=O)N(Cc2cccnc2)c2nc3c(Cl)cccc3s2)cc1 to O=C(O)CC(NS(=O)(=O)c1ccc(Br)s1)c1ccccc1 (configuration not stated), the inhibition falls from 12.8% to 2.86%.

First: Cc1cc(C)c(S(=O)(=O)N2CCN(Cc3nc4ccc(C)cc4o3)CC2)c(C)c1
Second: CC1=C(C(=O)Nc2cc(C)ccc2C)C2(CCCCCC2)OC1=O
The inhibition of the first is lower: -1.12% for the first, 13.4% for the second.

With CCN1CCN(S(=O)(=O)c2ccc(Cl)c(C(=O)NC3CCCC3)c2)CC1 the inhibition was active: 46.6%.
In the case of COc1ccc(CN2CCCC(C(=O)c3ccc(SC)cc3)C2)cc1Cn1cccn1 (configuration not stated), the inhibition is reported as active: 32.7%.
With COc1cc(C(=O)Nc2nc(C)c(Cc3ccc4c(c3)OCO4)s2)cc(OC)c1OC the inhibition was active: 39.7%.
With CC(C)C(NC(=O)CN(c1cccc(F)c1)S(C)(=O)=O)C(C)C the inhibition was active: 38.6%.
With O/N=C1\CCCCc2ccccc21 the inhibition was active: 33%.
For CCCCNc1ccc2c3c(cccc13)C(=O)N(CCCC)C2=O, the inhibition was active: 80.9%.
COc1ccc(NC(=O)CSCC(=O)N(C)Cc2ccc3c(c2)OCCO3)cc1 was tested, and the inhibition was active: 35.1%.
For CC(C)c1ccccc1OCCCN1CCCC1, the inhibition was active: 64.5%.
In the case of Cc1ccc(NC(=O)C2CC(=O)NC(N3CCCCC3)=N2)cc1Cl (configuration not stated), the inhibition is reported as active: 70.9%.
With CCc1ccc(NC(=O)COC(=O)c2nc3nc(C)cc(C)n3n2)cc1 the inhibition was active: 40.6%.
In the case of CCN(C(=O)c1cnc(N2CCN(c3ncccn3)CC2)c2ccccc12)c1cccc(Cl)c1, the inhibition is reported as active: 46.5%.
